Among the data in the antibiotic and cytotoxicity screens of Wong et al. (2023) are cytotoxicity call and growth inhibition call values, retold here.

One assay has as its system HSkMC. The assay can be described thus: cytotoxicity call (relative viability < 0.9). To be noted: 10 µM.
In another assay the test system is HepG2. Description: cytotoxicity call (relative viability < 0.9). To be noted: 10 µM.
A further assay relates to S. aureus RN4220. Description: growth inhibition call (relative growth <= 0.2). To be noted: 50 µM.

This is one part of the list.

In the case of `O=C(OC1Cc2c(O)cc(O)cc2OC1c1cc(O)c(O)c(O)c1)c1cc(O)c(O)c(O)c1` (centres undefined), the cytotoxicity call with HSkMC and with HepG2 was “inactive” throughout. Besides, in the assay on S. aureus RN4220, the growth inhibition call is “inactive”.

Regarding `C[C@H](CO)N1C[C@H](C)[C@H](CN(C)C(=O)Cc2ccccc2)Oc2cc(-c3cncnc3)ccc2S1(=O)=O`, the cytotoxicity call in the assay on HSkMC and in the assay on HepG2 was “inactive” throughout. In the assay with S. aureus RN4220, the growth inhibition call was “inactive”.

For `COc1ccc(NC(=O)Nc2ccc3c(c2)C(=O)N([C@H](C)CO)C[C@H](C)[C@H](CN(C)C(=O)Nc2ccccc2)OCCCC[C@H](C)O3)cc1`, the cytotoxicity call in the assay with HSkMC and in the assay with HepG2 was “inactive” each time. Also, the growth inhibition call with S. aureus RN4220 was “inactive”.

As to `CCS(=O)(=O)Nc1ccc2c(c1)C(=O)N(C)[C@@H]1CC[C@@H](CC(=O)NCc3ccccc3F)O[C@@H]1CO2`, the cytotoxicity call with HSkMC and in the assay on HepG2 was “inactive” in each case. In addition, in the assay with S. aureus RN4220, the growth inhibition call is “inactive”.

Turning to `O=C(C[C@H]1CC[C@H]2[C@@H](COC[C@@H](O)CN2Cc2ccccc2F)O1)N[C@H]1CCN(Cc2ccccc2)C1`, the cytotoxicity call in the assay with HSkMC and in the assay on HepG2 was “inactive” in each case. Besides, in the assay on S. aureus RN4220, the growth inhibition call was “inactive”.

As to `C[C@@H]1CN([C@@H](C)CO)C(=O)c2cc(C#Cc3ccccc3F)cnc2O[C@@H]1CN(C)C(=O)C1CCOCC1`, the cytotoxicity call in the assay on HSkMC and in the assay with HepG2 was “inactive” in each case. In addition, in the assay with S. aureus RN4220, the growth inhibition call is “inactive”.

Take `C[C@@H]1CN([C@@H](C)CO)C(=O)c2cccc(NC(=O)Nc3ccc4c(c3)OCO4)c2O[C@@H]1CN(C)C(=O)Nc1cccc2ccccc12`: the cytotoxicity call in the assay on HSkMC and with HepG2 was “inactive” throughout. In addition, the growth inhibition call with S. aureus RN4220 is “inactive”.

`NNc1cccc(C(=O)O)c1`: the cytotoxicity call with HSkMC and with HepG2 was “inactive” in each case. The growth inhibition call with S. aureus RN4220 is “inactive”.

With `O=c1nc[nH]c2c1ncn2[C@@H]1C[C@@H](O)[C@H](CO)O1`, the cytotoxicity call with HSkMC and in the assay with HepG2 was “inactive” in each case. For the same compound, the growth inhibition call in the assay with S. aureus RN4220 was “inactive”.

On to `C[C@@H]1CCCCO[C@@H](CN(C)C(=O)Nc2cccc3ccccc23)[C@H](C)CN([C@H](C)CO)C(=O)c2cc(NS(C)(=O)=O)ccc2O1`, for which the cytotoxicity call in the assay with HSkMC and with HepG2 was “inactive” in each case. The growth inhibition call with S. aureus RN4220 was “inactive”.

As for `COc1ccc(NC(=O)Nc2ccc3c(c2)C(=O)N([C@@H](C)CO)C[C@@H](C)[C@H](CN(C)C(=O)Nc2cccc4ccccc24)OCCCC[C@@H](C)O3)cc1`, the cytotoxicity call in the assay on HSkMC and with HepG2 was “inactive” each time. Further, in the assay with S. aureus RN4220, the growth inhibition call was “inactive”.

As for `O=C(C[C@@H]1C=C[C@H](NC(=O)c2cccnc2)[C@@H](CO)O1)NCc1ccncn1`, the cytotoxicity call in the assay on HSkMC and in the assay with HepG2 was “inactive” throughout. The growth inhibition call in the assay with S. aureus RN4220 was “inactive”.

As to `COc1ccc(NC(=O)N(C)C[C@H]2OCc3ccccc3-c3c(n(C)c4ccccc34)C(=O)N([C@H](C)CO)C[C@H]2C)c(OC)c1`, the cytotoxicity call in the assay with HSkMC and in the assay on HepG2 was “inactive” each time. Besides, the growth inhibition call in the assay with S. aureus RN4220 is “inactive”.

For `C[C@H](CO)N1C[C@H](C)[C@@H](CN(C)Cc2ccc(C(F)(F)F)cc2)Oc2ccc(NC(=O)Cc3ccccc3)cc2C1=O`, the cytotoxicity call in the assay on HSkMC and in the assay on HepG2 was “inactive” throughout. The growth inhibition call with S. aureus RN4220 is “inactive”.

On to `CC1CCC2(OC1)OC1CC3C4CCC5CC(O)CCC5(C)C4CC(=O)C3(C)C1C2C` (centres undefined), for which the cytotoxicity call with HSkMC and in the assay with HepG2 was “inactive” throughout. Further, the growth inhibition call with S. aureus RN4220 is “inactive”.

Regarding `COc1ccc(CN(C)C[C@H]2OCCCC[C@@H](C)Oc3ccc(NC(=O)CCC(F)(F)F)cc3C(=O)N([C@@H](C)CO)C[C@H]2C)cc1`, the cytotoxicity call with HSkMC and with HepG2 was “inactive” in each case. Besides, in the assay with S. aureus RN4220, the growth inhibition call is “inactive”.

As to `O=C1CCc2ccc(OCCCCN3CCN(c4cccc(Cl)c4Cl)CC3)cc2N1`, in the assay with HSkMC, the cytotoxicity call is “inactive”. Moreover, in the assay with HepG2, the cytotoxicity call is “active”. In the assay on S. aureus RN4220, the growth inhibition call was “inactive”.

Turning to `C[C@H](CO)N1C[C@H](C)[C@H](CN(C)S(C)(=O)=O)OCCCC[C@H](C)Oc2ccc(NC(=O)c3ccncc3)cc2C1=O`, the cytotoxicity call in the assay with HSkMC and with HepG2 was “inactive” throughout. Moreover, the growth inhibition call with S. aureus RN4220 is “inactive”.

As to `COc1ccc(NC(=O)N(C)C[C@@H]2OCc3ccccc3-c3c(n(C)c4ccccc34)C(=O)N([C@H](C)CO)C[C@@H]2C)cc1`, the cytotoxicity call in the assay on HSkMC and with HepG2 was “inactive” throughout. Moreover, in the assay with S. aureus RN4220, the growth inhibition call was “inactive”.

Take `C[C@@H]1CN([C@@H](C)CO)C(=O)c2cc(NC(=O)CCCCCC(=O)Nc3ccccc3N)ccc2O[C@H]1CN(C)S(=O)(=O)c1cn(C)cn1`: the cytotoxicity call in the assay with HSkMC and in the assay with HepG2 was “inactive” in each case. In addition, the growth inhibition call in the assay with S. aureus RN4220 was “inactive”.

Regarding `N[C@@H](C(=O)O)c1ccc(O)cc1`, the cytotoxicity call in the assay with HSkMC and with HepG2 was “inactive” each time. Moreover, in the assay on S. aureus RN4220, the growth inhibition call was “inactive”.

As to `C[C@H]1CN([C@@H](C)CO)C(=O)c2cc(NC(=O)CCCCCC(=O)Nc3ccccc3N)ccc2O[C@H]1CN(C)C(=O)Nc1ccc(F)cc1`, the cytotoxicity call in the assay on HSkMC and in the assay with HepG2 was “inactive” each time. Moreover, the growth inhibition call in the assay with S. aureus RN4220 was “inactive”.

Turning to `CCO[C@H]1CC(C)(C)NC(=S)N1`, the cytotoxicity call with HSkMC and in the assay with HepG2 was “inactive” each time. In addition, the growth inhibition call with S. aureus RN4220 is “inactive”.

Consider `C[C@@H]1CN([C@@H](C)CO)C(=O)c2cc(NS(=O)(=O)c3ccc(F)cc3)ccc2O[C@@H](C)CCCCO[C@H]1CN(C)C(=O)CCC(F)(F)F`, for which the cytotoxicity call with HSkMC and in the assay with HepG2 was “inactive” in each case. For the same compound, the growth inhibition call with S. aureus RN4220 was “inactive”.

Regarding `C[C@H]1CN([C@@H](C)CO)C(=O)c2cc(C#CC3(O)CCCC3)cnc2O[C@H]1CN(C)C(=O)Nc1ccc2c(c1)OCO2`, the cytotoxicity call in the assay on HSkMC (human skeletal muscle cells) and in the assay with HepG2 was “inactive” throughout. For the same compound, the growth inhibition call in the assay with S. aureus RN4220 is “inactive”.

In the case of `C[C@@H]1CCCCO[C@@H](CN(C)Cc2ccc(C(=O)O)cc2)[C@@H](C)CN([C@@H](C)CO)C(=O)c2cc(NC(=O)Cc3ccccc3)ccc2O1`, the cytotoxicity call in the assay with HSkMC and in the assay with HepG2 was “inactive” throughout. Besides, the growth inhibition call in the assay on S. aureus RN4220 is “inactive”.

Turning to `CN[C@@H]1[C@H](O)[C@H](NC)[C@H]2O[C@@]3(O)C(=O)C[C@@H](C)O[C@H]3O[C@@H]2[C@H]1O`, the cytotoxicity call in the assay with HSkMC and with HepG2 was “inactive” throughout. Besides, in the assay with S. aureus RN4220, the growth inhibition call was “inactive”.

Consider `C=CCOC(=O)[C@@H]1[C@H]2C(=O)O[C@H](c3ccccc3)[C@H](c3ccccc3)N2[C@H](c2ccc(OCCOC(=O)[C@H]3C[C@H]4C(=O)N5CCC[C@H]5C(=O)N4[C@H]3c3ccc(O)cc3)cc2)[C@@]12C(=O)Nc1ccccc12`, for which the cytotoxicity call in the assay with HSkMC and in the assay on HepG2 was “inactive” in each case. The growth inhibition call in the assay on S. aureus RN4220 was “inactive”.
